We go through 28 compounds from the antibiotic and cytotoxicity screens of Wong et al. (2023).

For test [1], the system named is HSkMC (human skeletal muscle cells). Briefly: cytotoxicity call (relative viability < 0.9). As to conditions: 10 µM.
Test [2] concerns HepG2. As to the kind of experiment: cytotoxicity call (relative viability < 0.9). Particulars: 10 µM.
Test [3] deals with S. aureus RN4220. As to the kind of experiment: growth inhibition call (relative growth <= 0.2). Particulars: 50 µM.

SMILES strings stand for the structures. This is one part of the list.

As to `C[C@@H]1CN([C@H](C)CO)C(=O)c2cc(NC(=O)c3ccccc3)ccc2O[C@@H](C)CCCCO[C@@H]1CN(C)S(=O)(=O)c1ccccc1`, the cytotoxicity call in test [1] and in test [2] was “inactive” in each case. The growth inhibition call in test [3] was “inactive”.

For `C[C@@H]1CN([C@@H](C)CO)C(=O)Cc2cc(NC(=O)Nc3ccccc3)ccc2O[C@@H]1CN(C)Cc1ccc(C(F)(F)F)cc1`, the cytotoxicity call in test [1] and in test [2] was “active” throughout. Also, in test [3], the growth inhibition call was “inactive”.

Turning to `C[C@H](CO)N1C[C@H](C)[C@@H](CN(C)S(=O)(=O)c2ccccc2)OCCCC[C@H](C)Oc2ccc(NC(=O)c3ccccc3)cc2C1=O`, the cytotoxicity call in test [1] and in test [2] was “inactive” each time. Besides, the growth inhibition call in test [3] was “inactive”.

Take `C(=N\Cc1cccnc1)/c1c2ccccc2cc2ccccc12`: in test [1], the cytotoxicity call is “inactive”. In addition, the cytotoxicity call in test [2] was “active”. Moreover, the growth inhibition call in test [3] is “inactive”.

Turning to `CC1C(NC(=O)C(=NOC(C)(C)C(=O)O)c2csc(N)n2)C(=O)N1S(=O)(=O)O` (centres undefined), the cytotoxicity call in test [1] and in test [2] was “inactive” in each case. Also, in test [3], the growth inhibition call is “inactive”.

Regarding `COc1ccc(NC(=O)N(C)C[C@H]2OCCCC[C@H](C)Oc3ccc(NC(=O)Nc4ccc5c(c4)OCO5)cc3C(=O)N([C@H](C)CO)C[C@@H]2C)cc1`, the cytotoxicity call in test [1] and in test [2] was “inactive” in each case. For the same compound, the growth inhibition call in test [3] was “inactive”.

For `C[C@@H]1CN([C@@H](C)CO)C(=O)c2cccc(NC(=O)c3cnccn3)c2O[C@@H]1CN(C)S(=O)(=O)c1cccs1`, the cytotoxicity call in test [1] and in test [2] was “inactive” in each case. The growth inhibition call in test [3] is “inactive”.

In the case of `C[C@H](CO)N1C[C@H](C)[C@@H](CN(C)Cc2ccc(Oc3ccccc3)cc2)Oc2c(NC(=O)C3CCCCC3)cccc2C1=O`, the cytotoxicity call in test [1] and in test [2] was “active” throughout. Further, in test [3], the growth inhibition call was “inactive”.

Take `NC(=O)CNC(=O)c1cccc(Cl)c1`: the cytotoxicity call in test [1] and in test [2] was “inactive” in each case. In test [3], the growth inhibition call was “inactive”.

On to `C/C=C/c1ccc([C@@H]2[C@@H](CO)N(S(=O)(=O)Cc3ccccc3)C23CN(C(=O)C2CCOCC2)C3)cc1`, for which the cytotoxicity call in test [1] and in test [2] was “inactive” each time. Further, the growth inhibition call in test [3] is “inactive”.

With `COc1ccc(NC(=O)N(C)C[C@@H]2Oc3c(NC(=O)Nc4ccc(C(F)(F)F)cc4)cccc3C(=O)N([C@H](C)CO)C[C@H]2C)cc1`, the cytotoxicity call in test [1] and in test [2] was “inactive” in each case. Besides, the growth inhibition call in test [3] was “inactive”.

`CCCNC(=O)c1cc2c(c(-c3cccc(-c4cccc(F)c4)c3)n1)[C@H](CCO)N([S@@](=O)C(C)(C)C)C2`: the cytotoxicity call in test [1] and in test [2] was “inactive” each time. In test [3], the growth inhibition call is “active”.

In the case of `COc1ccc(S(=O)(=O)N(C)C[C@H]2Oc3c(NS(=O)(=O)c4ccc(C)cc4)cccc3C(=O)N([C@H](C)CO)C[C@H]2C)cc1`, the cytotoxicity call in test [1] and in test [2] was “inactive” each time. The growth inhibition call in test [3] was “inactive”.

With `C[C@H]1CN([C@@H](C)CO)C(=O)c2cc(NC(=O)Nc3cccc4ccccc34)ccc2O[C@@H]1CN(C)Cc1ccc(Cl)c(Cl)c1`, the cytotoxicity call in test [1] and in test [2] was “inactive” each time. Besides, the growth inhibition call in test [3] was “inactive”.

On to `C[C@@H]1CN([C@H](C)CO)S(=O)(=O)c2ccc(C#CCN(C)C)cc2O[C@H]1CN(C)S(=O)(=O)c1cccc(F)c1`, for which the cytotoxicity call in test [1] and in test [2] was “inactive” in each case. Besides, the growth inhibition call in test [3] is “inactive”.

On to `Cn1cc(C(=O)O)cn1`, for which the cytotoxicity call in test [1] and in test [2] was “inactive” throughout. Moreover, the growth inhibition call in test [3] is “inactive”.

Consider `CN1C(=O)c2cc(NC(=O)Cc3cccs3)ccc2OC[C@H]2O[C@H](CC(=O)NCCCN3CCOCC3)CC[C@H]21`, for which the cytotoxicity call in test [1] and in test [2] was “inactive” in each case. In addition, in test [3], the growth inhibition call was “inactive”.

Consider `C[C@@H]1CN([C@H](C)CO)C(=O)c2cc(NC(=O)CCC(F)(F)F)ccc2O[C@@H](C)CCCCO[C@H]1CN(C)C(=O)Nc1ccccc1`, for which the cytotoxicity call in test [1] and in test [2] was “inactive” in each case. Moreover, the growth inhibition call in test [3] was “inactive”.

Consider `CCNC(=O)C[C@H]1CC[C@@H](NC(=O)C2CCOCC2)[C@H](CO)O1`, for which the cytotoxicity call in test [1] and in test [2] was “inactive” each time. In test [3], the growth inhibition call is “inactive”.

Regarding `C=CCNC1=C2C[C@H](C)C[C@H](OC)[C@@H](O)[C@H](C)/C=C(\C)[C@H](OC(N)=O)[C@H](OC)/C=C/C=C(\C)C(=O)NC(=CC1=O)C2=O`, the cytotoxicity call in test [1] and in test [2] was “active” in each case. Further, in test [3], the growth inhibition call was “inactive”.

For the compound `CN(C)Cc1ccc([C@@H](N)c2ccncc2)cc1`, the cytotoxicity call in test [1] and in test [2] was “inactive” each time. Also, the growth inhibition call in test [3] was “inactive”.

As to `Cc1noc(C)c1NC(=O)Nc1ccc2c(c1)C(=O)N([C@@H](C)CO)C[C@@H](C)[C@H](CN(C)C(=O)C1CCCCC1)OCCCC[C@@H](C)O2`, the cytotoxicity call in test [1] and in test [2] was “inactive” throughout. Also, in test [3], the growth inhibition call is “inactive”.

Take `Cc1noc(C)c1S(=O)(=O)Nc1ccc2c(c1)C(=O)N([C@@H](C)CO)C[C@@H](C)[C@H](CN(C)C(=O)Nc1ccccc1)O2`: the cytotoxicity call in test [1] and in test [2] was “inactive” throughout. Besides, in test [3], the growth inhibition call is “inactive”.

As for `CCNC(=O)C[C@@H]1C=C[C@@H](NC(=O)C2CCOCC2)[C@@H](CO)O1`, the cytotoxicity call in test [1] and in test [2] was “inactive” each time. Moreover, the growth inhibition call in test [3] is “inactive”.

For the compound `CC=Cc1ccc2n(c1=O)C[C@@H]1[C@@H](CO)[C@H](C(=O)NCC3CC3)[C@H]2N1S(=O)(=O)c1cn(C)cn1`, the cytotoxicity call in test [1] and in test [2] was “inactive” each time. Also, the growth inhibition call in test [3] was “inactive”.

Turning to `CC(=O)Nc1nnc(S(N)(=O)=O)s1`, the cytotoxicity call in test [1] and in test [2] was “inactive” in each case. Also, in test [3], the growth inhibition call is “inactive”.

For the compound `Cc1noc(C)c1S(=O)(=O)Nc1ccc2c(c1)C(=O)N([C@H](C)CO)C[C@@H](C)[C@@H](CN(C)Cc1ccc(C(F)(F)F)cc1)OCCCC[C@H](C)O2`, the cytotoxicity call in test [1] is “inactive”. Moreover, the cytotoxicity call in test [2] is “active”. In addition, the growth inhibition call in test [3] was “inactive”.

In the case of `COc1cc(C(=O)N2CCOCC2)cc(OC)c1OC`, the cytotoxicity call in test [1] and in test [2] was “inactive” each time. In addition, in test [3], the growth inhibition call was “inactive”.
